Measured values reported in PubChem BioAssay AID686978 (National Center for Advancing Translational Sciences (NCATS), 2013).
“And” between values parts separate entries of the source, which are not always exact repeats. Equal entries are not always repeated. Out of some 420,000 compounds screened, about 64,000 (15%) were called active. This list was built around the results that the source calls inconclusive (neither active nor inactive); the mix of calls is not that of the screen. Calls come from the whole dose curve; as a rule, active = well fitted inhibition curve with a large enough effect; inconclusive = small, poorly fitted or top-dose-only effect; inactive = flat fitted curve, though single readings scatter. No potency is given beside an inconclusive call; the fits are too rough.

assay: qHTS for Inhibitors of human tyrosyl-DNA phosphodiesterase 1 (TDP1): qHTS in cells in absence of CPT; details: DT40 Tdp1-/- hTDP1 cells, no CPT, ATP luminescence, 48 h; activity change, negative = growth inhibition: at 46.2 µM (top of the series) unless noted; note: nearly all actives have a fitted effect of over 55% in size
Outline: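 Readout: luminescence from CellTiter-Glo after 30 min in the dark at RT. Cells: DT40 Tdp1-/- with stable hTDP1, 400/well. Exposure: compounds alone, ≥48 hr, 37 °C.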
% is set by controls: 0 for no effect and ±100 for the full control effect; potency is the fitted concentration of half-maximal effect; tags give direction and shape of the fitted curve.

SMILES	Potency	activity change, negative = growth inhibition
Cc1ccc(Nc2nc(N)nc(CSC(=S)N3CCOCC3)n2)cc1	inconclusive [inhibitor, partial curve, poor fit]	–
COc1ccc(N2CCN(C(=O)C(C)(C)Oc3ccc(Cl)cc3)CC2)cc1	inconclusive [inhibitor, single point]	–
Cc1cc(C)c(S(=O)(=O)N2CCN(C(=O)c3cc4ccccc4oc3=O)CC2)c(C)c1	inconclusive [inhibitor, single point]	–
CCS(=O)(=O)c1ccc2oc(SCC(=O)NCCC3=CCCCC3)nc2c1	–	inactive: -7%
COCCn1c(=O)c(-c2ccccc2)nc2cnc(N3CCOCC3)nc21	–	inactive: -7.21%
Cc1[nH]c(=O)[nH]c(=O)c1S(=O)(=O)Nc1cccc(Cl)c1C	–	inactive: 11.2%
O=C(CSc1nnnn1-c1ccc(O)cc1)c1cc2ccccc2o1	inconclusive [inhibitor, partial curve]	–
Cc1ccc(S(=O)(=O)N(C)c2ccc(C(=O)N3CCC(C(N)=O)CC3)cc2)cc1	inconclusive [inhibitor, single point]	–
CC(Nc1nc(-c2ccccc2O)nc2ccccc12)c1ccccc1 (stereo unspecified)	inconclusive [inhibitor, single point]	–
FC(F)(F)c1cccc(Cc2noc(CN3CCC(N4CCCCC4)CC3)n2)c1	inconclusive [inhibitor, partial curve, poor fit]	–
CC(=O)NCC(=O)OCC(=O)c1ccc2ccccc2c1	–	inconclusive: -33.4% [inhibitor]
Cc1cccc(C(=O)NC(=S)N2CCN(c3ccc([N+](=O)[O-])cc3)CC2)c1	active: 16.4 µM	–
O=C(Cc1ccc2c(c1)OCO2)NN=Cc1ccc([N+](=O)[O-])o1	active: 11.6 µM	–
CCCc1c(C(=O)N/N=C/c2ccco2)nnn1-c1nonc1N	–	inactive: 15.3%
CCC(=O)NNc1ncnc2c1cnn2C	–	inactive: 15.6%
N#Cc1ccc(CN2CC3(CCN(C(=O)c4cc(C(F)(F)F)cc(C(F)(F)F)c4)CC3)C2)cc1	active: 10.3 µM	–
O=C(c1ccncc1)N1CCC2(CC1)CN(c1ccc(-c3ccccc3)cc1)C2	active: 7.31 µM	–
O=c1[nH]c(=O)n([C@H]2C[C@@H](O)[C@@H](CO)O2)cc1F	active: 1.58 µM	–

SMILES	Potency	activity change, negative = growth inhibition
C#CCNC(=O)C1=C[C@@H](c2ccc(C(F)(F)F)cc2)[C@H](CCCO)[C@@H](OCC)O1	inconclusive [inhibitor, partial curve]	–
COc1ccc(CNC(=O)Nc2ccc3c(c2)N(C)C(=O)CS3)cc1	inconclusive [inhibitor, single point]	–
COc1ccccc1NC(=O)c1cc(N)cc(C(=O)Nc2ccccc2OC)c1	inconclusive [inhibitor, partial curve, poor fit]	–
CC(C)Oc1cc(NC(=O)CS(=O)CC(=O)N(C)C)c(Cl)cc1Cl (stereo unspecified)	–	inactive: -12%
CC1=CC(=O)C(C(C)C)=C/C1=N\OC(=O)c1cccc2nc(C)oc12	active: 20.6 µM	–
CCCS(=O)(=O)N1CCCC(C(=O)NCCN2CCCCC2C)C1 (stereo unspecified)	–	inactive: 9.41%
COc1ccc2cc3cc(C(=O)NCc4cccs4)oc3nc2c1	inconclusive [inhibitor, single point]	–
COc1ccc(OC)c(NC(=O)Cn2nc3c(cc2=O)CCCC3)c1	inconclusive [inhibitor, full curve, poor fit]	–
Cc1ccc(CN(C(=O)c2ccco2)C(C(=O)NC2CCCC2)c2ccc(N3CCOCC3)cc2)cc1 (stereo unspecified)	inconclusive [inhibitor, single point]	–
Cc1nc(-c2cccc(NC(=O)c3cccc(S(=O)(=O)N4CCCC4)c3)c2)cs1	active: 23.1 µM	–
Fc1ccc(N2CCN(Cc3ccc4c(c3)CN(Cc3cccn3-c3ncccn3)CCO4)CC2)cc1	inconclusive [inhibitor, single point]	–
COc1cc(CNCc2ccccn2)ccc1OCc1ccc(Cl)c(Cl)c1	inconclusive [inhibitor, single point]	–
CC(=O)c1cccc(NC(=O)CSCc2ccc(Br)cc2)c1	inconclusive [inhibitor, single point]	–
CCc1ccc(NC(=O)CC2C(=O)N(c3cccc(C)c3)C(=O)N2Cc2cccc(OC)c2)cc1 (stereo unspecified)	inconclusive [inhibitor, single point]	–
Cc1ccc(/C=C(\C#N)C(=O)Nc2cccc3ncccc23)o1	active: 25.9 µM	–
COc1ccc(NC(=O)CCN2C(=O)C3CC=CCC3C2=O)cc1S(=O)(=O)N1CCCCC1 (stereo unspecified)	–	inactive: -29%
Cc1csc(C(C)N(C)C(=O)c2cc(NC(=O)C3CCC3)c3c(c2)nc(-c2ccncc2)n3C)n1 (stereo unspecified)	–	inactive: 6.3%
Cc1cc(Cl)ccc1OCCCC(=O)NO	active: 12.6 µM and active: 18.4 µM	–
